# The supplement of paper PMC8728848
# This is one part of the list.
# B1: PpFlo3 (Pichia pastoris) (protein)
# chain: MGSSHHHHHHSSGLVPRGSHMQESGNGTTSDTAYACDIGATPFDGFNATIYQYQASDDNSIQDPVFMSTGYLQRNQLHSTTGVTNPGFNIFTAGVATTTLYGIPNVNYQNMLLELKGYFRADASGNYGLSLRNIDDSAILFFGRETAFECCNENLIPLDEAPTDYSLFTIKEGEASTNPDSYTYTQYLEAGRYYPVRTFFANIRTRAVFNFTMTLPDGSELTDFQNYIFQFGALNQ
# Columns and labels:
# Experiment in all cases: glycan array binding signal (z-score within array); higher = stronger binding
# Settings in all cases: glycan notation: IUPAC condensed, linker removed
# [1] = biological target: Fuc(a1-2)[GalNAc(a1-3)]Gal(b1-4)Glc
# Summary of the method: (§1)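 Arrays were curated from the Consortium for Functional Glycomics database, 3228 in total, and kept only where the protein sequence was available. Binding is expressed as a within-array Z-score. This score was averaged across arrays of the same protein sequence at different concentrations or buffers and across linkers, and negative values can be read as non-binding.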
# [2] = biological target: Fuc(a1-2)[GalNAc(a1-3)]Gal(b1-4)GlcNAc
# Summary of the method: as §1
# [3] = biological target: Fuc(a1-2)[GalNAc(a1-3)]Gal(b1-4)GlcNAc(b1-2)Man(a1-3)[Fuc(a1-2)[GalNAc(a1-3)]Gal(b1-4)GlcNAc(b1-2)Man(a1-6)]Man(b1-4)GlcNAc(b1-4)GlcNAc
# Summary of the method: as §1
# [4] = biological target: Fuc(a1-2)[GalNAc(a1-3)]Gal(b1-4)GlcNAc(b1-2)Man(a1-3)[Fuc(a1-2)[GalNAc(a1-3)]Gal(b1-4)GlcNAc(b1-2)Man(a1-6)]Man(b1-4)GlcNAc(b1-4)[Fuc(a1-6)]GlcNAc
# Summary of the method: as §1
# [5] = biological target: Fuc(a1-2)[GalNAc(a1-3)]Gal(b1-4)GlcNAc(b1-3)Gal(b1-4)GlcNAc
# Summary of the method: as §1
# [6] = biological target: Fuc(a1-2)[GalNAc(a1-3)]Gal(b1-4)GlcNAc(b1-3)Gal(b1-4)GlcNAc(b1-3)Gal(b1-4)GlcNAc
# Summary of the method: as §1
# [7] = biological target: Fuc(a1-2)[GalNAc(a1-3)]Gal(b1-4)GlcNAc(b1-3)GalNAc
# Summary of the method: as §1
# [8] = biological target: Fuc(a1-2)[GalNAc(a1-3)]Gal(b1-4)[Fuc(a1-3)]GlcNAc
# Summary of the method: as §1
# [9] = biological target: Fuc(a1-2)[GalNAc(a1-3)]Gal(b1-4)[Fuc(a1-3)]GlcNAc(b1-3)GalNAc
# Summary of the method: as §1
# [10] = biological target: Fuc(a1-2)[GalNAc(a1-4)]Gal(b1-4)GlcNAc
# Summary of the method: as §1
# [11] = biological target: Fuc(a1-2)[GalNAc(b1-3)]Gal
# Summary of the method: as §1
# Fuc(a1-3)GlcNAc = biological target: Fuc(a1-3)GlcNAc
# Summary of the method: as §1
# [12] = biological target: Fuc(a1-3)[Gal(b1-4)]Glc6S
# Summary of the method: as §1
# [13] = biological target: Fuc(a1-3)[Gal(b1-4)]GlcNAc
# Summary of the method: as §1
# [14] = biological target: Fuc(a1-3)[Gal(b1-4)]GlcNAc(b1-2)Man(a1-3)[Fuc(a1-3)[Gal(b1-4)]GlcNAc(b1-2)Man(a1-6)]Man(b1-4)GlcNAc(b1-4)GlcNAc
# Summary of the method: as §1
# [15] = biological target: Fuc(a1-3)[Gal(b1-4)]GlcNAc(b1-2)Man(a1-3)[Fuc(a1-3)[Gal(b1-4)]GlcNAc(b1-2)Man(a1-6)]Man(b1-4)GlcNAc(b1-4)[Fuc(a1-6)]GlcNAc
# Summary of the method: as §1
# [16] = biological target: Fuc(a1-3)[Gal(b1-4)]GlcNAc(b1-3)Gal(b1-3)[Fuc(a1-4)]GlcNAc
# Summary of the method: as §1
# [17] = biological target: Fuc(a1-3)[Gal(b1-4)]GlcNAc(b1-3)GalNAc
# Summary of the method: as §1
# [18] = biological target: Fuc(a1-3)[Gal(b1-4)]GlcNAc(b1-4)Gal(b1-4)[Fuc(a1-3)]GlcNAc
# Summary of the method: as §1
# [19] = biological target: Fuc(a1-3)[Gal(b1-4)]GlcNAc(b1-4)Gal(b1-4)[Fuc(a1-3)]GlcNAc(b1-4)Gal(b1-4)[Fuc(a1-3)]GlcNAc
# Summary of the method: as §1
# [20] = biological target: Fuc(a1-3)[Gal(b1-4)]GlcNAc(b1-6)GalNAc
# Summary of the method: as §1
# [21] = biological target: Fuc(a1-3)[Gal(b1-4)]GlcNAc(b1-6)[Gal(b1-3)GlcNAc(b1-3)]Gal(b1-4)Glc
# Summary of the method: as §1
# [22] = biological target: Fuc(a1-3)[Gal(b1-4)]GlcNAc(b1-6)[Neu5Ac(a2-3)Gal(b1-3)]GalNAc
# Summary of the method: as §1
# [23] = biological target: Fuc(a1-3)[Gal(b1-4)]GlcNAc6S
# Summary of the method: as §1
# [24] = biological target: Fuc(a1-3)[Gal3S(b1-4)]GlcNAc
# Summary of the method: as §1
# [25] = biological target: Fuc(a1-3)[Gal3S(b1-4)]GlcNAc6S
# Summary of the method: as §1
# [26] = biological target: Fuc(a1-3)[GalNAc(b1-4)]GlcNAc
# Summary of the method: as §1
# Fuc(a1-4)GlcNAc = biological target: Fuc(a1-4)GlcNAc
# Summary of the method: as §1
# Fuc(b1-3)GlcNAc = biological target: Fuc(b1-3)GlcNAc
# Summary of the method: as §1
# Gal(a1-2)Gal = biological target: Gal(a1-2)Gal
# Summary of the method: as §1
# Gal(a1-3)Gal = biological target: Gal(a1-3)Gal
# Summary of the method: as §1
# Gal(a1-3)Gal(b1-3)GlcNAc = biological target: Gal(a1-3)Gal(b1-3)GlcNAc
# Summary of the method: as §1
# [27] = biological target: Gal(a1-3)Gal(b1-3)GlcNAc(b1-2)Man(a1-3)[Gal(a1-3)Gal(b1-3)GlcNAc(b1-2)Man(a1-6)]Man(b1-4)GlcNAc(b1-4)GlcNAc
# Summary of the method: as §1
# [28] = biological target: Gal(a1-3)Gal(b1-3)GlcNAc(b1-3)GalNAc
# Summary of the method: as §1
# [29] = biological target: Gal(a1-3)Gal(b1-3)[Fuc(a1-4)]GlcNAc(b1-2)Man(a1-3)[Gal(a1-3)Gal(b1-3)[Fuc(a1-4)]GlcNAc(b1-2)Man(a1-6)]Man(b1-4)GlcNAc(b1-4)GlcNAc
# Summary of the method: as §1
# Gal(a1-3)Gal(b1-4)Glc = biological target: Gal(a1-3)Gal(b1-4)Glc
# Summary of the method: as §1
# Gal(a1-3)Gal(b1-4)GlcNAc = biological target: Gal(a1-3)Gal(b1-4)GlcNAc
# Summary of the method: as §1
# [30] = biological target: Gal(a1-3)Gal(b1-4)GlcNAc(b1-3)GalNAc
# Summary of the method: as §1
# [31] = biological target: Gal(a1-3)Gal(b1-4)[Fuc(a1-3)]GlcNAc
# Summary of the method: as §1
# [32] = biological target: Gal(a1-3)Gal(b1-4)[Fuc(a1-3)]GlcNAc(b1-2)Man(a1-3)[Gal(a1-3)Gal(b1-4)[Fuc(a1-3)]GlcNAc(b1-2)Man(a1-6)]Man(b1-4)GlcNAc(b1-4)GlcNAc
# Summary of the method: as §1
# Gal(a1-3)GalNAc = biological target: Gal(a1-3)GalNAc
# Summary of the method: as §1
# [33] = biological target: Gal(a1-3)[Gal(a1-4)]Gal(b1-4)GlcNAc
# Summary of the method: as §1
# [34] = biological target: Gal(a1-4)Gal(b1-3)GlcNAc(b1-2)Man(a1-3)[Gal(a1-4)Gal(b1-3)GlcNAc(b1-2)Man(a1-6)]Man(b1-4)GlcNAc(b1-4)GlcNAc
# Summary of the method: as §1
# Gal(a1-4)Gal(b1-4)Glc = biological target: Gal(a1-4)Gal(b1-4)Glc
# Summary of the method: as §1
# Gal(a1-4)Gal(b1-4)GlcNAc = biological target: Gal(a1-4)Gal(b1-4)GlcNAc
# Summary of the method: as §1
binder,measurement,setting,value
B1,glycan array binding signal (z-score),[1],-0.268
same,glycan array binding signal (z-score),[2],-0.222
same,glycan array binding signal (z-score),[3],-0.098
same,glycan array binding signal (z-score),[4],-0.264
same,glycan array binding signal (z-score),[5],-0.27
same,glycan array binding signal (z-score),[6],-0.303
same,glycan array binding signal (z-score),[7],-0.16
same,glycan array binding signal (z-score),[8],-0.222
same,glycan array binding signal (z-score),[9],-0.229
same,glycan array binding signal (z-score),[10],-0.288
same,glycan array binding signal (z-score),[11],-0.271
same,glycan array binding signal (z-score),Fuc(a1-3)GlcNAc,-0.269
same,glycan array binding signal (z-score),[12],-0.274
same,glycan array binding signal (z-score),[13],2.18
same,glycan array binding signal (z-score),[14],-0.145
same,glycan array binding signal (z-score),[15],-0.27
same,glycan array binding signal (z-score),[16],-0.307
same,glycan array binding signal (z-score),[17],-0.21
same,glycan array binding signal (z-score),[18],2.75
same,glycan array binding signal (z-score),[19],1.69
same,glycan array binding signal (z-score),[20],-0.238
same,glycan array binding signal (z-score),[21],-0.251
same,glycan array binding signal (z-score),[22],-0.229
same,glycan array binding signal (z-score),[23],-0.294
same,glycan array binding signal (z-score),[24],-0.273
same,glycan array binding signal (z-score),[25],-0.28
same,glycan array binding signal (z-score),[26],-0.279
same,glycan array binding signal (z-score),Fuc(a1-4)GlcNAc,-0.255
same,glycan array binding signal (z-score),Fuc(b1-3)GlcNAc,-0.229
same,glycan array binding signal (z-score),Gal(a1-2)Gal,-0.243
same,glycan array binding signal (z-score),Gal(a1-3)Gal,-0.286
same,glycan array binding signal (z-score),Gal(a1-3)Gal(b1-3)GlcNAc,-0.287
same,glycan array binding signal (z-score),[27],-0.174
same,glycan array binding signal (z-score),[28],-0.168
same,glycan array binding signal (z-score),[29],-0.284
same,glycan array binding signal (z-score),Gal(a1-3)Gal(b1-4)Glc,-0.279
same,glycan array binding signal (z-score),Gal(a1-3)Gal(b1-4)GlcNAc,-0.277
same,glycan array binding signal (z-score),[30],-0.266
same,glycan array binding signal (z-score),[31],-0.278
same,glycan array binding signal (z-score),[32],0.579
same,glycan array binding signal (z-score),Gal(a1-3)GalNAc,-0.251
same,glycan array binding signal (z-score),[33],-0.205
same,glycan array binding signal (z-score),[34],-0.288
same,glycan array binding signal (z-score),Gal(a1-4)Gal(b1-4)Glc,-0.281
same,glycan array binding signal (z-score),Gal(a1-4)Gal(b1-4)GlcNAc,-0.139
